The list shows a part of the results. The main result of the screen is listed elsewhere. These columns were measured beside it and carry no call.
Legend:
Experiment in all cases: Primary Screen for Target Class Profiling of Small Molecule Inhibitors of Methyltransferases
[1] = target: Glycine N-methyltransferase (Homo sapiens) (UniProt Q14749); details: purified enzyme, MTase-Glo SAH luminescence; measured here: GNMT inhibition; at 40 µM; stronger effect = lower value
Outline: (§1)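 Each enzyme was reacted with SAM and its substrate, with compounds tested once at 40 uM; SAH formed was read by MTase-Glo luminescence.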

[2] = target: Guanidinoacetate N-methyltransferase (Homo sapiens) (UniProt Q14353); details: purified enzyme, MTase-Glo SAH luminescence; measured here: GAMT inhibition; at 40 µM; stronger effect = lower value
Outline: as §1

[3] = target: Histamine N-methyltransferase (Homo sapiens) (UniProt P50135); details: purified enzyme, MTase-Glo SAH luminescence; measured here: HNMT inhibition; at 40 µM; stronger effect = lower value
Outline: as §1

[4] = target: Nicotinamide N-methyltransferase (Homo sapiens) (UniProt P40261); details: purified enzyme, MTase-Glo SAH luminescence; measured here: NNMT inhibition; at 40 µM; stronger effect = lower value
Outline: as §1

[5] = target: Phenylethanolamine N-methyltransferase (Homo sapiens) (UniProt P11086); details: purified enzyme, MTase-Glo SAH luminescence; measured here: PNMT inhibition; at 40 µM; stronger effect = lower value
Outline: as §1
% is scaled to controls: 0 for no effect and ±100 for the full control effect.

Structure (SMILES)	activity change, negative = inhibition [1]	activity change, negative = inhibition [2]	activity change, negative = inhibition [3]	activity change, negative = inhibition [4]	activity change, negative = inhibition [5]
CN(C)C(=O)CCN1CCOC(CC(c2ccccc2)c2ccccc2)C1 (stereo unspecified)	-5.89%	-9.77%	-4.62%	-15.8%	-12%
CCC(C(=O)NCc1cccc(Cl)c1)n1ccc2cc(S(=O)(=O)N3CCCCC3)ccc21 (stereo unspecified)	7.21%	0.386%	6.79%	4.37%	3.08%
OCCN1CCN(CC/C=C2/c3ccccc3Sc3ccc(C(F)(F)F)cc32)CC1	-3.1%	8.23%	-21.6%	-38.6%	4.44%
Fc1ccc(-c2noc(-c3ncn4c3COC(c3ccccc3Cl)C4)n2)cc1 (stereo unspecified)	-7.83%	-4.53%	-5.45%	-2.11%	-4.92%
O=C(Nc1ccc(Cl)cc1)c1nc2c(o1)CCN(Cc1ccncc1)CC2	-18.2%	-7.37%	-19.2%	-10.5%	-10.3%
OC(c1ccccc1)c1nc(Nc2ccc3c(c2)OCO3)n[nH]1 (stereo unspecified)	-24.5%	-14.4%	-6.95%	-20.4%	-27.1%
CC(C)(O)[C@@H]1CC[C@]2(CO)[C@@H](O)CC[C@](C)(O)[C@H]2[C@@H]1O[C@@H]1O[C@H](CO)[C@@H](O)[C@H](O)[C@H]1O	-1.54%	-0.255%	7.19%	-14.7%	-9.79%
COc1ccc(-c2nnc(-c3ccc(Cl)c(S(=O)(=O)N4CCCCC4)c3)o2)cc1	14.2%	1.69%	12.6%	7.56%	7.54%
Cc1cnc(C(=O)N[C@@H]2CCC[C@@H]2C(=O)N2CCC(N3CCCCC3)CC2)cn1	-9.14%	-12.3%	-12.4%	-19.5%	-14.3%
CCCn1nc2c(c1C)C(c1ccc(OCC(N)=O)c(Cl)c1)CC(=O)N2 (stereo unspecified)	-6.25%	-3.47%	0.117%	-17.5%	-4.17%
O=C(CCc1nnc2n(Cc3ccccc3Cl)c(=O)c3ccccc3n12)NCCN1CCCC1	-1.66%	0.39%	-18.8%	14.4%	1.79%
COc1ccccc1N1CCN(C(=O)Cn2c(C)cc3nc4n(c(=O)c32)CCCCC4)CC1	-5.04%	-1.52%	-0.377%	-6.86%	-4.04%
Cc1cccc(CNC(=O)C2(C)Cn3cnc(C(=O)NC4CCCCC4)c3C(=O)N2C2CC2)c1 (stereo unspecified)	1.05%	1.19%	5.71%	-1.97%	6.18%
CC12CC(O)C(O)C=C1c1cc(O)cc(O)c1C(=O)O2 (stereo unspecified)	5.12%	4.78%	7.83%	-7.59%	6.95%
O=C(NCC1CC1)c1nc2c(o1)CCN(CCCc1ccccc1)CC2	-8.96%	-7.35%	-7.13%	-13%	-25.2%
C/C(=C1/C(=O)Nc2ccc(NC(N)=O)cc21)c1ccc[nH]1		3.99%		-39.3%	1.06%
Cc1cc(F)ccc1NC(=O)CCC1CCCN(C(=O)c2ccc(Cl)s2)C1 (stereo unspecified)	-7.11%	-10.3%	-4.85%	-15.7%	-8.67%
COC(=O)c1ncn2c1C(=O)N(c1cc(C)cc(C)c1)C(C)(C(=O)NC1CCCC1)C2 (stereo unspecified)	2.62%	0%	-3.03%	1.29%	-2.2%
CC(C)n1cc(C(=O)N2CCCC(c3nnc(Cn4ccnc4)n3C)C2)cn1 (stereo unspecified)	-1.25%	-3.57%	0.56%	-8.11%	-2.08%
COc1ccc2cc3n(c2c1)CC(C)(C(=O)NC1CCCCC1)N(CCCN1CCCCC1)C3=O (stereo unspecified)	-2.29%	2.35%	-3.29%	-1.06%	-4.88%
COc1ccc(OC)c(S(=O)(=O)N2CCCC(Cc3ncc(C)n3C(C)C)C2)c1 (stereo unspecified)	-6.75%	-4.11%	-1.32%	-17.5%	-3.17%
COc1cccc(N2C(=O)c3cc(-c4cccs4)nn3CC2(C)C(=O)NC2CCCCCC2)c1 (stereo unspecified)	3.32%	0.316%	8.29%	-0.719%	1.73%
O=c1cc(-c2cccnc2)oc2c(NCCc3ccccn3)nccc12	-18.2%	-16.2%	-17.6%	-34.6%	-11.8%
CC(NC(=O)c1cc2n(n1)CC(C)(C(=O)NC1CCCCC1)N(C)C2=O)c1ccc2c(c1)OCCO2 (stereo unspecified)	-3.05%	-12.1%	1.6%	-6.65%	-5.21%
N#C/C(=C\c1ccc(O)c(O)c1)C(=O)Nc1ccccc1	-18.7%	11.3%	6.22%	-11.3%	6.74%
CCN(CC)CC(=O)N1CCC(Oc2ccccc2C)(C(=O)O)CC1	0.548%	-1.58%	-0.852%	1.59%	1.53%
CCc1cccc(N2C(=O)c3ccc(-c4ccco4)n3CC2(C)C(=O)NC2CCCC2)c1 (stereo unspecified)	-10.9%	0.776%	6.08%	4.04%	-1.78%
CNc1cc2c(Nc3cccc(Br)c3)ncnc2cn1		-20.3%		-26.4%	-55.7%
CCCn1c(=O)c2ccc(C(=O)NCC(C)C)cc2n2c(=O)n(CC(=O)Nc3cc(F)ccc3F)nc12	-0.713%	0.286%	-0.102%	-4.59%	-1.71%
Cc1ccc(NC(=O)Cn2nc3n(CC(C)C)c(=O)c4ccc(C(=O)NC(C)C)cc4n3c2=O)cc1	-0.381%	5.52%	-0.549%	-2.63%	-2.16%
